Reference: PMC6919601, “Identification of Plasmodium dipeptidyl aminopeptidase allosteric inhibitors by high throughput screening” (PLoS ONE, 2019)
Out of some 110,000 compounds screened, about 230 (0.21%) showed an effect of 50% or more. The list shows a part of the results.

Molecular target: DPAP1 (Plasmodium falciparum, UniProt Q8IIJ9)
Assay: primary screen, percent inhibition; read by cleavage of a fluorogenic dipeptide substrate; higher = more effect of the substance
Design: species or system P. falciparum D10 trophozoite lysates; single well
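Note: 30 min substrate incubation versus DMSO and 10 µM JCP410 controls.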

Sequence of DPAP1 (Q8IIJ9 whole entry, looked up): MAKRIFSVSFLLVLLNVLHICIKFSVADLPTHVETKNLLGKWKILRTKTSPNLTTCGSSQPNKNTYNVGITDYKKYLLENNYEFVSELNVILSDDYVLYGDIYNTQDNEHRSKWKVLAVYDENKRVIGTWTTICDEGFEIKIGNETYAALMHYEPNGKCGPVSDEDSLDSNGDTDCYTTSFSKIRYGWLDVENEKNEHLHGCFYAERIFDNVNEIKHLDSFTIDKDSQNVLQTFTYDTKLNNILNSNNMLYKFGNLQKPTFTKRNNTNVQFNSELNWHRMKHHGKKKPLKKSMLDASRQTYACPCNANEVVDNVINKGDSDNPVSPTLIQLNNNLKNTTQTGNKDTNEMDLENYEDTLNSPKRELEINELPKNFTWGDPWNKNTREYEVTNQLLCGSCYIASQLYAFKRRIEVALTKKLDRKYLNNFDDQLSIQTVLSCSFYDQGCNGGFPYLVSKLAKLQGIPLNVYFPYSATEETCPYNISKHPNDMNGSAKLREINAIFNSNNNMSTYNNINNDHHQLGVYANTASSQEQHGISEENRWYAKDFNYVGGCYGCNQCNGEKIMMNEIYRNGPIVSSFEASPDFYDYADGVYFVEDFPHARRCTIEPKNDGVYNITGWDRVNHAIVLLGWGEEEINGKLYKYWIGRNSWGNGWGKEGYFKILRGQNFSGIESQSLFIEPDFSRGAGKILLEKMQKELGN

| SMILES | % Inhibition @ 10 uM [%] |
| --- | --- |
| Cn1c(=O)[nH]c(=O)c2c1nc(N1CCOCC1)n2Cc1ccc(Cl)cc1 | 2.92 |
| CCC(C)(C)C1CCc2c(sc(NC(=O)C3CC=CCC3C(=O)O)c2C(N)=O)C1 (centres unmarked) | 1.59 |
| CCOC(=O)NC(CC(=O)O)c1ccc(F)cc1 (centres unmarked) | 0.279 |
| CC(C)CCNC(=O)CN1CC(=O)N2CCCC2C1=O (centres unmarked) | -4.46 |
| CSc1ccc(CN2CCN(c3ccccn3)CC2)cc1 | -4.61 |
| COc1ccccc1N1CCN(Cc2nc3ccccc3c(=O)n2-c2ccc(F)cc2)CC1 | 0.245 |
| OC1(c2ccc(Br)cc2)CCN(C2CCN(CCc3ccccc3)CC2)CC1 | -0.0908 |
| Cc1nn(CC(=O)NCCCOC(C)C)c(=O)c2cc3cc(F)ccc3n12 | 3.09 |
| COc1ccc(-c2noc(COc3ccc(C)cc3Br)n2)cc1OC | 3.66 |
| Cc1cc(NS(=O)(=O)c2ccc(N3C(=O)c4ccccc4C3=O)cc2)no1 | -2.74 |
| CCOc1ccc2ncc(S(=O)(=O)c3ccc(C)c(C)c3)c(N3CCN(CC)CC3)c2c1 | -8.2 |
| O=C(O)CSc1cc(NS(=O)(=O)c2ccccc2)c2ccccc2c1O | 4 |
| O=C(NCc1ccccc1)c1cc2nc(C3CC3)cc(C(F)(F)F)n2n1 | 3.35 |
| COCCCNC(=O)c1cc2c(=O)n3cccc(C)c3nc2n(C2CCCCC2)c1=N | -9.1 |
| CCOc1ccccc1NC(=O)CN(c1ccccc1C)S(C)(=O)=O | 1.52 |
| COc1ccc(O)c(C2CC(c3c(O)cc(C)oc3=O)=Nc3cc(C(F)(F)F)ccc3S2)c1 (centres unmarked) | 1.42 |
| COc1ccc(CNCc2ccc(C)cc2)c(OC)c1 | -1.07 |
| O=C(O)CCCC(=O)Nc1ccc(Oc2ccc3ccccc3c2)cc1 | 2.44 |
| COc1ccc2cc(-c3nc(-c4ccc(Cl)cc4)no3)c(=O)oc2c1 | -1.68 |
| COc1ccc(/C=C2\SC(Nc3ccc(F)cc3)=NC2=O)c(OC)c1 | 5.73 |
| CC(C)OCCCNCc1c(C(=O)O)n(Cc2ccccc2)c2ccccc12 | -1.44 |
| CCN1C(=O)CC(c2ccncc2)=Nc2ccccc21 | -5 |
| O=C(O)C(c1c(O)oc2ccccc2c1=O)c1c(O)oc2ccccc2c1=O | 3.25 |
| CCOC(=O)N1CCC(NC(=O)c2nc(-c3cccnc3)no2)CC1 | 0.658 |
| COc1cc(CN(C(=S)NCC(=O)NCc2cccs2)C2CCCC2)cc(OC)c1OC | -0.406 |

| SMILES | % Inhibition @ 10 uM [%] |
| --- | --- |
| CC(=O)N1C(=O)C2(C(C#N)=C(N)Oc3[nH]nc(-c4ccc(F)cc4)c32)c2ccccc21 (centres unmarked) | -3.77 |
| c1ccc(-c2csc(C3CCOCC3)n2)cc1 | 1.54 |
| CN1CCN(CC(O)COc2ccc(Cl)cc2)CC1 (centres unmarked) | -0.711 |
| CCN(CC)CCN(CC)Cc1ccccc1Cl | 2.91 |
| CCOc1ccc(C2=CC(c3cc(OC)c(OC)c(OC)c3)n3ncnc3N2)cc1 (centres unmarked) | -5.19 |
| Cc1ccc(C(=O)Nc2nc(-c3nnn(-c4ccc(C)cc4C)c3C)ns2)cc1 | 2.62 |
| Cc1cccc(NC(=O)C2CCN(S(=O)(=O)c3c(C)nn(C)c3C)CC2)n1 | 3.81 |
| COc1c(S(=O)(=O)N2CCC(C(N)=O)CC2)ccc(Cl)c1Cl | 3.53 |
| Cc1ccccc1C(=O)Nc1sc(C)c(C)c1C(N)=O | -0.28 |
| COc1ccccc1CNC(=O)Cn1ncn2nc(-c3cccs3)cc2c1=O | 0.623 |
| CN(C)S(=O)(=O)N1CCC(C(=O)O)(c2ccccc2)CC1 | -6.28 |
| CCCc1ccc(OCC(=O)Nc2ccc(C)c([N+](=O)[O-])c2)cc1 | -2.66 |
| O=C(O)C1CCCCC1C(=O)NCCCn1ccnc1 (centres unmarked) | 4.01 |
| Cc1nc2cc(-c3ccccc3)nn2c(C)c1CCC(=O)NCCC1=CCCCC1 | 2.93 |
| Cc1ccc(S(=O)(=O)N(CC(=O)Nc2cccnc2)c2cc(Cl)cc(Cl)c2)cc1 | -7.28 |
| CC(C)C[C@H](NC(=O)c1cccs1)C(=O)NCC#N | 0.174 |
| COc1ccc(C)cc1N(CC(=O)NC(C)(C)C)S(=O)(=O)c1ccc(C)cc1 | -3.78 |
| COc1cc(OC)c(NC(C)=O)cc1Cl | -0.268 |
| O=C(NC1CCN(Cc2ccccc2)CC1)c1ccc(F)cc1 | -1.96 |
| OC(COc1ccc(OCC(O)CN2CCCCC2)cc1)CN1CCCCC1 (centres unmarked) | 3.53 |
| CC(C)c1ccc(OCC(=O)NCCN2CCOCC2)c(Br)c1 | 3.04 |
| CCOc1cc(/C=N/n2cnnc2)c(Br)cc1O | 0.611 |
| CC1(C[C@H](NC(=O)OC(C)(C)C)C(=O)NC2(C#N)CCS(=O)(=O)CC2)CCCC1 | 3.1 |
| CCCCCCSc1nc(N)c2c(C)c(C)sc2n1 | -1.26 |
| COCCCNC(=O)c1csc2c1CCCC2 | -1.44 |
